The text below walks through data of publication PMC12102759 (2025).

Sequences and labels used below:
B1: CAPRIN1 peptide 364-379 (Caprin-1), 16-mer library wild type / G3BP1 NFT2 (G3BP1 NTF2 domain, […]) (parent complex)
chain 1: AQMQGPYNFIQDSMLD
chain 2: not shown

The test covers variants of B1. As to the kind of experiment: proteomic peptide phage display deep mutational scan (ProP-PD DMS): M13 P8 16-mer library selected against immobilised GST-tagged bait for four days (rounds), NGS of the eluted pools per day and pseudo-replica; bait immobilised on MaxiSorp plates (10 µg), library pre-cleared on GST, 2 h binding at 4 °C, five washes; one round per day, days 1-4; value from days 2 and 3.
For the variant chain 1 M14S, the screen value is 0.000108 average fractional NGS count over selection days 2 and 3 (reads of this peptide / all reads for the bait, averaged over ….

Take chain 1 M14Y: the screen value was 0.000624 average fractional NGS count over selection days 2 and 3 (reads of this peptide / all reads for the bait, averaged over ….

With chain 1 P6K, the screen value was 0.000974 average fractional NGS count over selection days 2 and 3 (reads of this peptide / all reads for the bait, averaged over ….

As to chain 1 P6M, the screen value is 0.00513 average fractional NGS count over selection days 2 and 3 (reads of this peptide / all reads for the bait, averaged over ….

Regarding chain 1 P6Q, the screen value was 0.000413 average fractional NGS count over selection days 2 and 3 (reads of this peptide / all reads for the bait, averaged over ….

For chain 1 P6I, the screen value is 0.000671 average fractional NGS count over selection days 2 and 3 (reads of this peptide / all reads for the bait, averaged over ….

chain 1 Q11H: the screen value was 0.000376 average fractional NGS count over selection days 2 and 3 (reads of this peptide / all reads for the bait, averaged over ….

In the case of chain 1 Q11V, the screen value was 0.00065 average fractional NGS count over selection days 2 and 3 (reads of this peptide / all reads for the bait, averaged over ….

Consider chain 1 Q2D, for which the screen value was 0.000271 average fractional NGS count over selection days 2 and 3 (reads of this peptide / all reads for the bait, averaged over ….

Take chain 1 Q2P: the screen value is 0.00278 average fractional NGS count over selection days 2 and 3 (reads of this peptide / all reads for the bait, averaged over ….

For chain 1 Q2F, the screen value was 0.0275 average fractional NGS count over selection days 2 and 3 (reads of this peptide / all reads for the bait, averaged over ….

Regarding chain 1 M3V, the screen value was 0.00499 average fractional NGS count over selection days 2 and 3 (reads of this peptide / all reads for the bait, averaged over ….

For the variant chain 1 M3L, the screen value was 0.00308 average fractional NGS count over selection days 2 and 3 (reads of this peptide / all reads for the bait, averaged over ….

Turning to chain 1 M3N, the screen value was 0.000297 average fractional NGS count over selection days 2 and 3 (reads of this peptide / all reads for the bait, averaged over ….

For chain 1 M3P, the screen value is 0.000124 average fractional NGS count over selection days 2 and 3 (reads of this peptide / all reads for the bait, averaged over ….

Turning to chain 1 M3K, the screen value is 0.000885 average fractional NGS count over selection days 2 and 3 (reads of this peptide / all reads for the bait, averaged over ….

chain 1 A1L: the screen value is 0.00141 average fractional NGS count over selection days 2 and 3 (reads of this peptide / all reads for the bait, averaged over ….

On to chain 1 A1W, for which the screen value is 0.000626 average fractional NGS count over selection days 2 and 3 (reads of this peptide / all reads for the bait, averaged over ….

For the variant chain 1 A1P, the screen value was 0.000523 average fractional NGS count over selection days 2 and 3 (reads of this peptide / all reads for the bait, averaged over ….

chain 1 G5I: the screen value was 0.00166 average fractional NGS count over selection days 2 and 3 (reads of this peptide / all reads for the bait, averaged over ….

As for chain 1 G5Y, the screen value was 0.000955 average fractional NGS count over selection days 2 and 3 (reads of this peptide / all reads for the bait, averaged over ….

On to chain 1 G5W, for which the screen value was 0.000297 average fractional NGS count over selection days 2 and 3 (reads of this peptide / all reads for the bait, averaged over ….

Turning to chain 1 G5S, the screen value is 0.0159 average fractional NGS count over selection days 2 and 3 (reads of this peptide / all reads for the bait, averaged over ….

Consider chain 1 D12Q, for which the screen value is 0.000599 average fractional NGS count over selection days 2 and 3 (reads of this peptide / all reads for the bait, averaged over ….

Take chain 1 D12G: the screen value was 0.00045 average fractional NGS count over selection days 2 and 3 (reads of this peptide / all reads for the bait, averaged over ….

Turning to chain 1 N8E, the screen value was 0.000764 average fractional NGS count over selection days 2 and 3 (reads of this peptide / all reads for the bait, averaged over ….

For chain 1 N8T, the screen value was 0.00181 average fractional NGS count over selection days 2 and 3 (reads of this peptide / all reads for the bait, averaged over ….

With chain 1 N8K, the screen value was 0.00135 average fractional NGS count over selection days 2 and 3 (reads of this peptide / all reads for the bait, averaged over ….

chain 1 N8L: the screen value was 0.0106 average fractional NGS count over selection days 2 and 3 (reads of this peptide / all reads for the bait, averaged over ….

For the variant chain 1 Q4D, the screen value is 0.0851 average fractional NGS count over selection days 2 and 3 (reads of this peptide / all reads for the bait, averaged over ….

Turning to chain 1 Q4S, the screen value was 0.00115 average fractional NGS count over selection days 2 and 3 (reads of this peptide / all reads for the bait, averaged over ….

On to chain 1 Q4E, for which the screen value is 0.00014 average fractional NGS count over selection days 2 and 3 (reads of this peptide / all reads for the bait, averaged over ….

Turning to chain 1 Y7L, the screen value is 0.00463 average fractional NGS count over selection days 2 and 3 (reads of this peptide / all reads for the bait, averaged over ….
